These results are taken from patent publication US20250214977A1, “STAT6 INHIBITORS AND USES THEREOF” (Kymera Therapeutics, Inc., priority 2024, published 2025).

Some results are limits rather than exact numbers.

This assay deals with T1, biotinylated truncated STAT6 (123-632)-avi (Homo sapiens, UniProt P42226).
T1 sequence (P42226 123-632 limits assumed): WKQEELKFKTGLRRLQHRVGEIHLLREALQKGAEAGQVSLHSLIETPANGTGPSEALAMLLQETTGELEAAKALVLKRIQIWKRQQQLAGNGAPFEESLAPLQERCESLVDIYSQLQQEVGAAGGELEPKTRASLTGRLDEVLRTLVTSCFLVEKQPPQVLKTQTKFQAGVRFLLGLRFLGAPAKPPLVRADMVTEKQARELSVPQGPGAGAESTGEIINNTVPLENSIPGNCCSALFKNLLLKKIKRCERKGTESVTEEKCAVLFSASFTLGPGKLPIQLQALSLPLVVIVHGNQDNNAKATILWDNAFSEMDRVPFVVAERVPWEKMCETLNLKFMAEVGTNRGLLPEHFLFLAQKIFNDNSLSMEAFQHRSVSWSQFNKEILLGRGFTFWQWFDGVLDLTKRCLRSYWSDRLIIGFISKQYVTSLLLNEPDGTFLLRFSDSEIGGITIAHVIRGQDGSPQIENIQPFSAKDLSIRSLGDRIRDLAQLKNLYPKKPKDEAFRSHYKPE
The experiment in a line: Homogenous Time-Resolved Fluorescence (HTRF) binding assay. As to conditions: 0.15 nM biotinylated truncated STAT6 (123-632)-avi, 20 nM fluorescein-labeled probe, 30 minutes at room temperature.

Broadly, the IC50 is the concentration that gives 50% inhibition. High values mean a need for much substance, low ones inhibition by little substance. Regarding `COc1ccccc1-c1cc(C2=CCCN(C(=O)CCn3ccnn3)C2)c(F)c2[nH]c(C(=O)N3CCN(CC4(C#N)CC4)CC3)cc12` [Example I-1014], the IC50 was below 100 nM. `COc1ccccc1-c1cc(C2=CCCN(C(=O)CCn3ccnn3)C2)c(F)c2[nH]c(C(=O)N3CCN(c4cnn5ccncc45)CC3)cc12` [Example I-1015] gave a half-inhibitory concentration (IC50) below 100 nM.

Regarding `COc1ccccc1-c1cc(C2=CCCN(C(=O)CCn3ccnn3)C2)c(F)c2[nH]c(C(=O)N3CCN(c4cn(C)c5ncncc45)CC3)cc12` [Example I-1016], the IC50 was below 100 nM. For `COc1ccccc1-c1cc(C2=CCCN(C(=O)CCn3ccnn3)C2)c(F)c2[nH]c(C(=O)N3CCN(c4cnc5ncccn45)CC3)cc12` [Example I-1017], the IC50 is below 100 nM.

For the compound `COc1ccccc1-c1cc(C2=CCCN(C(=O)CCn3ccnn3)C2)c(F)c2[nH]c(C(=O)N3CCN(c4c(C)ccn5nccc45)CC3)cc12` [Example I-1019], the IC50 was below 100 nM. In the case of `COc1ccccc1-c1cc(C2=CCCN(C(=O)CCn3ccnn3)C2)c(F)c2[nH]c(C(=O)N3CCN(c4cccn(C)c4=O)CC3)cc12` [Example I-1021], the IC50 is below 100 nM. With `COc1ccccc1-c1cc(C2=CCCN(C(=O)CCn3ccnn3)C2)c(F)c2[nH]c(C(=O)N3CCN(c4ccc(=O)[nH]c4C)CC3)cc12` [Example I-1022], the IC50 is below 100 nM. In turn, `COc1ccccc1-c1cc(C2=CCCN(C(=O)CCn3ccnn3)C2)c(F)c2[nH]c(C(=O)N3CCN(c4cc(C)c(=O)n(C)c4)CC3)cc12` [Example I-1023] had an IC50 below 100 nM. In the case of `COc1ccccc1-c1cc(C2=CCCN(C(=O)CCn3ccnn3)C2)c(F)c2[nH]c(C(=O)N3CCN(c4nc(C)cs4)CC3)cc12` [Example I-1024], the IC50 is below 100 nM. `COc1ccccc1-c1cc(C2=CCCN(C(=O)CCn3ccnn3)C2)c(F)c2[nH]c(C(=O)N3CCN(c4cncn4C)CC3)cc12` [Example I-1026] yielded an IC50 below 100 nM. `COCc1cccc(NC(=O)c2cc3c(-c4ccccc4OC)cc(C4=CCCN(C(=O)CCn5ccnn5)C4)c(F)c3[nH]2)c1` [Example I-1028] returned an IC50 of 1000 to 10000 nM. As for `COc1ccccc1-c1cc(C2=CCCN(C(=O)CCn3ccnn3)C2)c(F)c2[nH]c(C(=O)N3CCc4nocc4C3)cc12` [Example I-1029], the IC50 is below 100 nM. For `COc1ccccc1-c1cc(C2=CCCN(C(=O)CCn3ccnn3)C2)c(F)c2[nH]c(C(=O)N3CCN(c4c(C)cc[nH]c4=O)CC3)cc12` [Example I-1030], the IC50 was below 100 nM. Next, `COc1ccccc1-c1cc(C2=CCCN(C(=O)CCn3ccnn3)C2)c(F)c2[nH]c(C(=O)N3CCC(=O)C3)cc12` [Example I-1031]: below 100 nM. Next, `COc1ccccc1-c1cc(C2=CCCN(C(=O)CCn3ccnn3)C2)c(F)c2[nH]c(C(=O)N3CCN(c4cc(C)c(O)c(C)c4)CC3)cc12` [Example I-1032]: 100 to 1000 nM. To `COc1ccccc1-c1cc(C2=CCCN(C(=O)CCn3ccnn3)C2)c(F)c2[nH]c(C(=O)N3CCN(c4ncn5c4CCCC5)CC3)cc12` [Example I-1034] belongs below 100 nM; to `COc1ccccc1-c1cc(C2=CCCN(C(=O)CCn3ccnn3)C2)c(F)c2[nH]c(C(=O)N3CC4CN(c5ncccc5OC)CC4C3)cc12` (stereo not shown) [Example I-1035], 100 to 1000 nM.

Take `CCOc1ccncc1-c1cc(C2=CCCN(C(=O)CCn3ccnn3)C2)c(F)c2[nH]c(C(=O)N3CCN(c4cnc(C)nc4OC)CC3)cc12` [Example I-1036]: the IC50 is below 100 nM. Next, `COc1cc(Cl)cnc1N1CCN(C(=O)c2cc3c(-c4cnc5ccccc5c4OC)cc(C4=CCCN(C(=O)CCn5ccnn5)C4)c(F)c3[nH]2)CC1` [Example I-1037]: 100 to 1000 nM. `COc1cccc(N2CCN(C(=O)c3cc4c(-c5cnc6ccccc6c5OC)cc(C5=CCCN(C(=O)CCn6ccnn6)C5)c(F)c4[nH]3)CC2)n1` [Example I-1038] registered an IC50 of 100 to 1000 nM. To `COc1cc(N(C)C)ccc1-c1cc(C2=CCCN(C(=O)CCn3ccnn3)C2)c(F)c2[nH]c(C(=O)N3CCN(c4ncc(Cl)cc4OC)CC3)cc12` [Example I-1039] belongs below 100 nM; to `CCc1ccncc1-c1cc(C2=CCCN(C(=O)CCn3ccnn3)C2)c(F)c2[nH]c(C(=O)N3CCN(c4ncc(C(F)(F)F)cc4OC)CC3)cc12` [Example I-1040], below 100 nM; to `CCOc1ccncc1-c1cc(C2=CCCN(C(=O)CCn3ccnn3)C2)c(F)c2[nH]c(C(=O)N3CCN(c4ncc(C)nc4OC)CC3)cc12` [Example I-1041], below 100 nM. Turning to `CN(C(=O)c1cc2c(-c3cncnc3C3CC3)cc(C3=CCCN(C(=O)CCn4ccnn4)C3)c(F)c2[nH]1)C1CC1` [Example I-1043], the half-maximal inhibitory concentration (IC50) was above 100000 nM. In the case of `CCc1ccncc1-c1cc(C2=CCCN(C(=O)C(C)C)C2)c(F)c2[nH]c(C(=O)N3CCN(c4ncc(F)cc4OC)CC3)cc12` [Example I-1044], the IC50 was in the range of 1000 to 10000 nM. Compound `CCn1nccc1-c1cc(C(=O)N2Cc3cnn(CC)c3C2)cc2cc(C3=CCCN(C(C)=O)C3)n(CC3CC3)c12` [Example I-1045] showed an IC50 of 100 to 1000 nM. Next, `CCc1ccc(-c2cc(C(=O)N3Cc4cnn(CC)c4C3)cc3cc(C4=CCCN(C(C)=O)C4)n(CC4CC4)c23)c(C)n1` [Example I-1046]: 100 to 1000 nM; `CN(C)C(=O)c1cc2cc(C3=CCCN(C(=O)CCn4ccnn4)C3)cc(C3CCNCC3)c2o1` [Example I-1048]: below 100 nM. The compound `CNc1ccc(-c2cc(C3=CCCN(C(=O)CCn4ccnn4)C3)cc3[nH]c(C(=O)N(C)C)cc23)c(Cl)c1` [Example I-1050] displayed an IC50 below 100 nM. Next, `CNc1ccc(-c2cc(C3=CCCN(C(=O)CCn4ccnn4)C3)cc3[nH]c(C(=O)N(C)C)cc23)c(OC)c1` [Example I-1051]: above 100000 nM; `CN(C)C(=O)c1cc2c(F)c(C3=CCCN(C(=O)CCn4ccnn4)C3)ccc2o1` [Example I-1052]: below 100 nM.

Consider `CNc1ccc(-c2cc(C3=CCCN(C(=O)CCn4ccnn4)C3)cc3[nH]c(C(=O)N(C)C)cc23)c(C)c1` [Example I-1053], for which the IC50 was below 100 nM. In turn, `COc1ccccc1-c1cc(C2=CCCN(C(=O)CCn3ccnn3)C2)cc2[nH]c(C(=O)N(C)C)cc12` [Example I-1054] displayed an IC50 below 100 nM. Next, `COc1cc(F)ccc1-c1cc(C2=CCCN(C(=O)CCn3ccnn3)C2)cc2[nH]c(C(=O)N(C)C)cc12` [Example I-1055]: below 100 nM; `CNc1ccc(-c2cc(C3=CCCN(C(=O)CCn4ccnn4)C3)cc3cc(C(=O)N(C)C)oc23)c(OC)c1` [Example I-1056]: below 100 nM. `COc1ccc(Cl)cc1-c1cc(C2=CCCN(C(=O)CCn3ccnn3)C2)cc2[nH]c(C(=O)N(C)C)cc12` [Example I-1058] yielded an IC50 below 100 nM. Consider `CNc1ccc(-c2cc(C3=CCCN(C(=O)CCn4ccnn4)C3)c(F)c3[nH]c(C(=O)N(C)C)cc23)c(OC)c1` [Example I-1059], for which the IC50 was below 100 nM. Consider `COc1cnccc1-c1cc(C2=CCCN(C(=O)CCn3ccnn3)C2)cc2[nH]c(C(=O)N(C)C)cc12` [Example I-1060], for which the IC50 was below 100 nM. As to `Cc1ccc(Cl)c(-c2cc(C3=CCCN(C(=O)CCn4ccnn4)C3)cc3[nH]c(C(=O)N(C)C)cc23)c1` [Example I-1061], the 50% inhibitory concentration (IC50) was below 100 nM. As for `COc1ccc(Cl)c(-c2cc(C3=CCCN(C(=O)CCn4ccnn4)C3)cc3[nH]c(C(=O)N(C)C)cc23)c1` [Example I-1062], the IC50 was below 100 nM. Compound `CNc1ccc(-c2cc(C3=CCCN(C(=O)C4Cc5c(N)cccc5CN4C=O)C3)cc3cc(C(=O)N(C)C)oc23)c(OC)c1` (stereo not shown) [Example I-1063] gave an IC50 below 100 nM. Next, `COc1ccncc1-c1cc(C2=CCCN(C(=O)CCn3ccnn3)C2)c(F)c2[nH]c(C(=O)N(C)C)cc12` [Example I-1065]: below 100 nM; `CN(C)C(=O)c1cc2c(-c3cc4cc[nH]c4cc3Cl)cc(C3=CCCN(C(=O)CCn4ccnn4)C3)cc2[nH]1` [Example I-1066]: below 100 nM. `COc1cnccc1-c1cc(C2=CCCN(C(=O)CCn3ccnn3)C2)cc2cc(C(=O)N(C)C)oc12` [Example I-1067] registered an IC50 below 100 nM. As for `CN(C)C(=O)c1cc2c(-c3ccccc3S(C)(=O)=O)cc(C3=CCCN(C(=O)CCn4ccnn4)C3)c(F)c2[nH]1` [Example I-1068], the IC50 was below 100 nM. To `COc1ccccc1-c1cc(C2=CCCN(C(C)=O)C2)c(F)c2[nH]c(C(=O)N(C)C)cc12` [Example I-1069] belongs below 100 nM; to `Cc1cc(-c2cc(C3=CCCN(C(=O)CCn4ccnn4)C3)cc3cc(C(=O)N(C)C)oc23)n(C)n1` [Example I-1070], below 100 nM. `CN(C)C(=O)c1cc2cc(C3=CCCN(C(=O)CCn4ccnn4)C3)cc(-c3ccc4[nH]ccc4c3)c2o1` [Example I-1071] came in with an IC50 below 100 nM. For the compound `CN(C)C(=O)c1cc2cc(C3=CCCN(C(=O)CCn4ccnn4)C3)cc(-c3ccc4cnn(C)c4c3)c2o1` [Example I-1072], the IC50 was below 100 nM. `CN(C)C(=O)c1cc2cc(C3=CCCN(C(=O)CCn4ccnn4)C3)cc(-c3ccc(C(F)(F)F)cc3O)c2o1` [Example I-1073] had an IC50 below 100 nM.

As for `CN(C)C(=O)c1cc2cc(C3=CCCN(C(=O)CCn4ccnn4)C3)cc(-c3ccc(F)cc3O)c2o1` [Example I-1074], the IC50 was below 100 nM. To `Cc1[nH]nc2ccc(-c3cc(C4=CCCN(C(=O)CCn5ccnn5)C4)cc4cc(C(=O)N(C)C)oc34)cc12` [Example I-1075] belongs below 100 nM.
